The supplement of paper PMC12217912
This is one part of the list. The full chains were built here from the parent and the listed change. Inactive controls read about 0.05.

B1: TEV protease; numbered along this chain (parent)
chain: MGESLFKGPRDYNPISSSICHLTNESDGHTTSLYGIGFGPFIITNKHLFRRNNGTLVVQSLHGVFKVKDTTTLQQHLVDGRDMIIIRMPKDFPPFPQKLKFREPQREERICLVTTNFQTKSMSSMVSDTSCTFPSGDGIFWKHWIQTKDGQCGSPLVSTRDGFIVGIHSASNFTNTNNYFTSVPKNFMELLTNQEAQQWVSGWRLNADSVLWGGHKVFMVKPEEPFQPVKEATQL

Variants of: B1
Experiment: raw area under fraction-flipped curve 0-4 h after induction (AUC4h, not background-subtracted), DNA-recorder readout of cleavage of the substrate (dimensionless); higher = more cleavage of the substrate by the protease variant
Details: temperature: 34 °C; time window: 0-4 h after rhamnose induction
Method: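 In vivo DNA recorder in E. coli TOP10(DE3) ΔrhaA at 34 °C. Each TEVp single-site mutant (parent TEVp 0) is paired with a single-site variant of the 7-mer TEVs (canonical ENLYFQ|S). The substrate sits between flexible linkers in a Bxb1-sfGFP-TEVs-SsrA fusion, so cleavage stabilises Bxb1 and speeds flipping of a recombination array, read by NGS. The value is the raw area under the fraction-flipped curve over 0-4 h after rhamnose induction (AUC4h), with ≥20 reads per time point. It is not background-subtracted; inactive controls average about 0.047.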
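Further: Bxb1 expression induced with 0.2% (w/v) L-rhamnose at OD600 near 0.5, cultures sampled hourly, flipped fraction per protease–substrate barcode pair counted by paired-end Illumina sequencing.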

N175T
area with substrate ENLYEQS: 0.0595
area with substrate ENLYGQS: 0.0578
area with substrate ENLYIQS: 0.0903
area with substrate ENLYKQS: 0.0708
area with substrate ENLYMQS: 0.0609
area with substrate ENLYPQS: 0.0438
area with substrate ENLYSQS: 0.0635
area with substrate ENLYWQS: 0.0551

E108S
area with substrate ENLYEQS: 0.0551
area with substrate ENLYGQS: 0.0522
area with substrate ENLYKQS: 0.0172
area with substrate ENLYMQS: 0.0627
area with substrate ENLYNQS: 0.06
area with substrate ENLYQQS: 0.0613
area with substrate ENLYRQS: 0.0548
area with substrate ENLYSQS: 0.0456
area with substrate ENLYVQS: 0.0791
area with substrate ENLYWQS: 0.0559

R10N
area with substrate ENLYEQS: 0.0611
area with substrate ENLYHQS: 0.0464
area with substrate ENLYIQS: 0.0927
area with substrate ENLYKQS: 0.0584
area with substrate ENLYLQS: 0.0786
area with substrate ENLYMQS: 0.0847
area with substrate ENLYNQS: 0.0576
area with substrate ENLYQQS: 0.0814
area with substrate ENLYRQS: 0.0647
area with substrate ENLYSQS: 0.0525
area with substrate ENLYWQS: 0.0741

V183F
area with substrate ENLYEQS: 0.0755
area with substrate ENLYGQS: 0.0695
area with substrate ENLYHQS: 0.0538
area with substrate ENLYIQS: 0.131
area with substrate ENLYKQS: 0.0377
area with substrate ENLYMQS: 0.0912
area with substrate ENLYNQS: 0.0627
area with substrate ENLYPQS: 0.0714
area with substrate ENLYRQS: 0.0852
area with substrate ENLYSQS: 0.0295
area with substrate ENLYTQS: 0.0904
area with substrate ENLYVQS: 0.114
area with substrate ENLYWQS: 0.0715

Q227T
area with substrate ENLYEQS: 0.065
area with substrate ENLYGQS: 0.0653
area with substrate ENLYHQS: 0.0764
area with substrate ENLYIQS: 0.128
area with substrate ENLYNQS: 0.0754
area with substrate ENLYPQS: 0.0568
area with substrate ENLYQQS: 0.0256
area with substrate ENLYRQS: 0.0726
area with substrate ENLYSQS: 0.0716
area with substrate ENLYVQS: 0.164
area with substrate ENLYWQS: 0.0906
area with substrate ENLYYQS: 0.0798

A207Y
area with substrate ENLYEQS: 0.068
area with substrate ENLYKQS: 0.0143
area with substrate ENLYMQS: 0.0809
area with substrate ENLYNQS: 0.0714
area with substrate ENLYPQS: 0.0806
area with substrate ENLYSQS: 0.0788
area with substrate ENLYVQS: 0.123

N52H
area with substrate ENLYEQS: 0.0816
area with substrate ENLYGQS: 0.0609
area with substrate ENLYHQS: 0.0553
area with substrate ENLYNQS: 0.0439
area with substrate ENLYPQS: 0.0493
area with substrate ENLYQQS: 0.0628
area with substrate ENLYRQS: 0.0598
area with substrate ENLYVQS: 0.0643
area with substrate ENLYWQS: 0.0628

T119H
area with substrate ENLYEQS: 0.0458
area with substrate ENLYHQS: 0.0633
area with substrate ENLYIQS: 0.153
area with substrate ENLYKQS: 0.0483
area with substrate ENLYLQS: 0.0861
area with substrate ENLYNQS: 0.067
area with substrate ENLYRQS: 0.0624
area with substrate ENLYVQS: 0.155

D69R
area with substrate ENLYEQS: 0.0704
area with substrate ENLYGQS: 0.0598
area with substrate ENLYHQS: 0.0695
area with substrate ENLYIQS: 0.114
area with substrate ENLYKQS: 0.0656
area with substrate ENLYMQS: 0.0737
area with substrate ENLYPQS: 0.0608
area with substrate ENLYQQS: 0.0481
area with substrate ENLYRQS: 0.0662
area with substrate ENLYSQS: 0.0678
area with substrate ENLYTQS: 0.0843
area with substrate ENLYVQS: 0.114
area with substrate ENLYWQS: 0.0687
area with substrate ENLYYQS: 0.0593

S26G
area with substrate ENLYEQS: 0.0598
area with substrate ENLYGQS: 0.0693
area with substrate ENLYHQS: 0.0451
area with substrate ENLYNQS: 0.0632
area with substrate ENLYPQS: 0.0747
area with substrate ENLYQQS: 0.0567
area with substrate ENLYSQS: 0.0595
area with substrate ENLYTQS: 0.0161

S26A
area with substrate ENLYEQS: 0.0407
area with substrate ENLYGQS: 0.0684
area with substrate ENLYHQS: 0.0608
area with substrate ENLYIQS: 0.0877
area with substrate ENLYKQS: 0.0422
area with substrate ENLYLQS: 0.0715
area with substrate ENLYMQS: 0.0617
area with substrate ENLYNQS: 0.0722
area with substrate ENLYPQS: 0.0712
area with substrate ENLYQQS: 0.0698
area with substrate ENLYRQS: 0.0681
area with substrate ENLYSQS: 0.0737
area with substrate ENLYTQS: 0.0704
area with substrate ENLYWQS: 0.0757

V58K
area with substrate ENLYEQS: 0.0457
area with substrate ENLYGQS: 0.0359
area with substrate ENLYHQS: 0.0395
area with substrate ENLYIQS: 0.0535
area with substrate ENLYKQS: 0.0281
area with substrate ENLYLQS: 0.054
area with substrate ENLYMQS: 0.065
area with substrate ENLYNQS: 0.0629
area with substrate ENLYPQS: 0.0463
area with substrate ENLYQQS: 0.0455
area with substrate ENLYTQS: 0.0453
area with substrate ENLYWQS: 0.05

F163L
area with substrate ENLYEQS: 0.0518
area with substrate ENLYGQS: 0.0928
area with substrate ENLYKQS: 0.074
area with substrate ENLYMQS: 0.0949
area with substrate ENLYPQS: 0.0801
area with substrate ENLYRQS: 0.079
area with substrate ENLYSQS: 0.0627
area with substrate ENLYWQS: 0.0866
area with substrate ENLYYQS: 0.066

C131S
area with substrate ENLYGQS: 0.0566
area with substrate ENLYHQS: 0.056
area with substrate ENLYNQS: 0.0629
area with substrate ENLYWQS: 0.0599

G8V
area with substrate ENLYGQS: 0.0573
area with substrate ENLYNQS: 0.0839
area with substrate ENLYPQS: 0.0838
area with substrate ENLYQQS: 0.0675
area with substrate ENLYRQS: 0.0723

P40E
area with substrate ENLYHQS: 0.0735
area with substrate ENLYNQS: 0.0718
area with substrate ENLYQQS: 0.0622
area with substrate ENLYSQS: 0.0869
area with substrate ENLYWQS: 0.0827

I42H
area with substrate ENLYHQS: 0.0375
area with substrate ENLYLQS: 0.0528
area with substrate ENLYMQS: 0.0814
area with substrate ENLYNQS: 0.0411
area with substrate ENLYSQS: 0.0764
area with substrate ENLYWQS: 0.0488
area with substrate ENLYYQS: 0.0356

K148F
area with substrate ENLYHQS: 0.0614
area with substrate ENLYIQS: 0.127
area with substrate ENLYNQS: 0.0661
area with substrate ENLYRQS: 0.0852

Y34Q
area with substrate ENLYKQS: 0.0342
area with substrate ENLYPQS: 0.0534
area with substrate ENLYTQS: 0.052
area with substrate ENLYWQS: 0.0488

G8R
area with substrate ENLYTQS: 0.111
area with substrate ENLYYQS: 0.0664
